# PubChem BioAssay AID2675 (National Center for Advancing Translational Sciences (NCATS), 2010)
# Screen size: about 280,000 compounds; about 100 (0.036%) were called active. The inconclusive results got no clear call from the source; some entries with a clear call stand among them for comparison. Calls come from the whole dose curve; as a rule, active = well fitted inhibition curve with a large enough effect in the signal ratio, with a control signal flat (not every such curve was filed as active); inconclusive = small, poorly fitted or top-dose-only effect, or effect the other way, or a change in a side signal; inactive = no such curve, though single readings can be large or run the other way; the % refers to the signal ratio. Potencies of inconclusive entries are doubtful fits and often do not repeat. A note “side channel” means that the fit belongs to a control or component signal, not to the main read-out.
# Biological target: Muscleblind-like protein 1 (Homo sapiens) (UniProt Q9NR56)
# Sequence of UniProt Q9NR56 (Q9NR56 whole entry, looked up): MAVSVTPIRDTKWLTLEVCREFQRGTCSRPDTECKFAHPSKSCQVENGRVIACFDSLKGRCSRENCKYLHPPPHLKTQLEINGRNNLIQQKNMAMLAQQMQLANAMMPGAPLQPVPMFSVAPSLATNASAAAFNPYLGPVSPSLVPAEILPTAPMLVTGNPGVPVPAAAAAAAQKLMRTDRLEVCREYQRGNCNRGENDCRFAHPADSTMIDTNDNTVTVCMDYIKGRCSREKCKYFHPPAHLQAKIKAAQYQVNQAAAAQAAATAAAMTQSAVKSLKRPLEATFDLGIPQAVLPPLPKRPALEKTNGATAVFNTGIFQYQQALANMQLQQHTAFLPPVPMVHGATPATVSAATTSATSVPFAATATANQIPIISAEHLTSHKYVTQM
# Assay: qHTS Assay for Inhibitors of MBNL1-poly(CUG) RNA binding
# Conditions: TR-FRET MBNL1-His/biotin-(CUG)12 binding, 665/545 ratio; activity change, negative = inhibition: at 57.5 µM (top of the series)
# How it was run: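 MBNL1-His + Biotin-(CUG)12, cpd titration 92 nM–58 uM; Tb anti-His Ab 0.055 ng/ul, SA-XL665 5 nM (final); 60 min RT; ratiometric 665/545 nm, Ex 340 nm; normalized to buffer and full-complex controls.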
# % is set by controls: 0 for no effect and ±100 for the full control effect; potency is the fitted concentration of half-maximal effect; tags give direction and shape of the fitted curve or compound fluorescence and quenching.
Compound,Potency,"activity change, negative = inhibition"
COc1ccccc1N1CCN(/N=C/C=C/c2ccccc2[N+](=O)[O-])CC1,"inconclusive: 35.5 µM [quencher, side channel, single point]",
Cn1c(=O)c([N+](=O)[O-])c(N2CCN(Cc3ccc4c(c3)OCO4)CC2)c2ccccc21,"inconclusive: 25.1 µM [quencher, side channel, single point]",
O=C(COc1ccc([N+](=O)[O-])cc1)NNC(=O)c1cccs1,"inconclusive: 25.1 µM [quencher, side channel, partial curve]",
CN(C)C(CNC(=O)c1cc2ccccc2oc1=O)c1ccccc1 (stereo not drawn),"inconclusive: 8.91 µM [quencher, partial curve]",
Cc1ccc(OCCn2cnc3cc([N+](=O)[O-])ccc3c2=O)cc1,"inconclusive: 20 µM [quencher, side channel, partial curve]",
Cc1ccc(NC(=S)N2CCN(C(=O)C3CCCO3)CC2)cc1 (stereo not drawn),"inconclusive: 4.47 µM [fluorescent, side channel, single point]",
c1ccc(C2CCC(N3CCNCC3)CC2)cc1 (stereo not drawn),"inconclusive: 0.158 µM [fluorescent, side channel, full curve]",
CC1CCc2c(sc3nn[nH]c(=O)c23)C1 (stereo not drawn),"inconclusive: 35.5 µM [quencher, side channel, single point]",
COc1ccccc1CNc1cc(C)ccn1,,inactive: -4.03%
Cc1ccsc1C(=O)NCc1ccc(F)cc1,,inactive: 1.2%
COc1cccc(-c2onc3ccc(C4(C)OCCO4)cc23)c1,"inconclusive: 28.2 µM [quencher, side channel, partial curve]",
Cc1ccc(O)c(N=CC2=C(O)c3ccccc3C2=O)c1,"inconclusive: 20 µM [quencher, side channel, partial curve]",
COc1ccc(OC)c(NC(=O)CCN2C(=O)c3cccc([N+](=O)[O-])c3C2=O)c1,"inconclusive: 8.91 µM [quencher, side channel, partial curve]",
COc1cccc2cc(C(=O)NCCN3CCOCC3)c(=O)oc12,"inconclusive: 15.8 µM [quencher, side channel, partial curve]",
O=C(NNC(=O)c1cccnc1SCc1cccc([N+](=O)[O-])c1)c1ccccn1,"inconclusive: 35.5 µM [quencher, side channel, partial curve]",
Cc1ccc2nc(C)c3c(c2c1)N(c1ccc(F)cc1)CC3,"inconclusive: 15.8 µM [quencher, side channel, partial curve]",
O=C(Nc1cnc2ccccn2c1=O)c1ccc(F)cc1,"inconclusive: 14.1 µM [quencher, side channel, partial curve]",
CCOC(=O)C1CCCN(S(=O)(=O)c2cccc3nsnc23)C1 (stereo not drawn),"inconclusive: 15.8 µM [quencher, partial curve]",
CN1CCC(=NNC(=O)CN(c2cccc([N+](=O)[O-])c2)S(=O)(=O)c2ccccc2)CC1,"inconclusive: 12.6 µM [quencher, side channel, partial curve]",
NS(=O)(=O)c1ccc(CCNC(=O)C(=O)c2cn(CC(=O)N3CCOCC3)c3ccccc23)cc1,"inconclusive: 31.6 µM [quencher, side channel, single point]",

Compound,Potency,"activity change, negative = inhibition"
NC(N)=NS(=O)(=O)c1ccc(N/C=C\C(=O)c2ccncc2)cc1,"inconclusive: 10 µM [quencher, side channel, partial curve]",
S=C(Nc1ccc(Br)cc1Cl)NN1CCOCC1,,inactive: -3.58%
c1coc(CNc2nc3nonc3nc2NCc2ccco2)c1,"inconclusive: 0.708 µM [quencher, side channel, full curve, poor fit]",
Cn1c2ccc(F)cc2c2nnc(SCCN3CCOCC3)nc21,"inconclusive: 14.1 µM [quencher, partial curve]",
O=C(Nc1nccs1)c1ccc([N+](=O)[O-])cc1,"inconclusive: 3.55 µM [quencher, side channel, partial curve]",
O=[N+]([O-])c1cc(Cl)ccc1-c1nc(-c2ccncc2)no1,"inconclusive: 3.55 µM [quencher, side channel, full curve, poor fit]",
CCN1CCc2nc(NC(=O)c3ccc(S(=O)(=O)N(C)C)cc3)sc2C1,"inconclusive: 15.8 µM [quencher, side channel, partial curve]",
CC(=O)Nc1ccccc1C(=O)C(=O)O,"inconclusive: 31.6 µM [quencher, side channel, single point]",
CN(C)C(CNc1ccc([N+](=O)[O-])cc1C#N)c1ccccc1 (stereo not drawn),"inconclusive: 14.1 µM [quencher, side channel, partial curve]",
COc1ccc(N/N=C(/Oc2ccc([N+](=O)[O-])cc2)C(C)=O)cc1,"inconclusive: 5.01 µM [quencher, side channel, full curve]",
CN(C)C(CNS(=O)(=O)c1ccc(Cl)cc1)c1cccnc1 (stereo not drawn),"inconclusive: 8.91 µM [quencher, side channel, single point]",
COc1ccc(OCCN2C(=O)c3cccc(N)c3C2=O)cc1,"inconclusive: 6.31 µM [quencher, side channel, partial curve]",
COc1ccc(C(C)=O)cc1COC(=O)c1cnc(C)cn1,"inconclusive: 2.24 µM [fluorescent, side channel, partial curve]",
COc1cc([N+](=O)[O-])ccc1-c1ccc(/C=N/NC(N)=O)o1,"inconclusive: 2.24 µM [quencher, side channel, partial curve]",
CCOC(=O)c1ccc(NC(=S)N2CCSC2c2ccc(Cl)cc2)cc1 (stereo not drawn),,inconclusive: -17.6% [phenotype inactive]
CC(C)CN1C(=O)c2ccc(C(=O)Nc3ccccc3C(=O)O)cc2C1=O,"inconclusive: 25.1 µM [quencher, side channel, partial curve]",
Cc1cc(OC(C)C(=O)N2C[C@H]3C[C@@H](C2)c2cccc(=O)n2C3)c2c(C)c(C)c(=O)oc2c1 (stereo partly drawn),"inconclusive: 12.6 µM [quencher, side channel, partial curve]",
CCOCCCNC(=S)N1CCN(c2nc(-c3ccccc3)cs2)CC1,,inactive: 3.67%
Cc1oc2c(CN3CCOCC3)c(O)ccc2c(=O)c1-c1ccc(Cl)cc1,"inconclusive: 0.631 µM [fluorescent, side channel, single point]",
CC(NC(=O)c1cc2ccccc2oc1=O)c1ccccc1 (stereo not drawn),"inconclusive: 12.6 µM [quencher, side channel, partial curve]",

Compound,Potency,"activity change, negative = inhibition"
CNc1sc(C(=O)c2cccs2)c(N)c1-c1nc2ccccc2s1,"inconclusive: 15.8 µM [quencher, side channel, partial curve]",
CCN1C=C(Cc2ccccc2C)C2=C(C1)C(c1ccccc1C)C(C#N)=C(N)O2 (stereo not drawn),,inactive: 6.99%
Cc1ccc(NC(=O)C2C3CCCCC32)cc1[N+](=O)[O-] (stereo not drawn),"inconclusive: 8.91 µM [quencher, side channel, full curve, poor fit]",
CC/C(=C\C(=O)c1ccncc1)Nc1ccc(O)cc1,"inconclusive: 31.6 µM [quencher, side channel, single point]",
O=C(N/N=C/c1ccc(Cl)c([N+](=O)[O-])c1)c1cnccn1,"inconclusive: 17.8 µM [quencher, side channel, partial curve]",
CCCOc1ccc(/C=N/n2nnnc2N)cc1OC,"inconclusive: 20 µM [quencher, side channel, partial curve]",
COc1ccc(S(=O)(=O)Nc2ccc(N3CCOCC3)cc2)cc1[N+](=O)[O-],"inconclusive: 28.2 µM [quencher, side channel, single point]",
O=C(NCC1COCCO1)c1ccc(OC2CCN(CCc3ccccc3)CC2)cc1 (stereo not drawn),,inactive: -4.4%
COc1cc(/C=N/NC(=O)NC2CCCCC2)cc(OC)c1O,,inactive: -6.59%
O=C(N/N=C/c1ccc([N+](=O)[O-])s1)c1ccncc1,"inconclusive: 0.794 µM [quencher, side channel, full curve]",
O=C(c1cc([N+](=O)[O-])cc([N+](=O)[O-])c1)N1CCCc2ccccc21,"inconclusive: 12.6 µM [quencher, side channel, partial curve]",
O=C1c2cccc([N+](=O)[O-])c2C(=O)N1c1c[nH]c(=O)[nH]c1=O,"inconclusive: 25.1 µM [quencher, side channel, single point]",
CC(=O)Oc1ccc2c(c1)C(=O)c1ccccc1C2=O,"inconclusive: 14.1 µM [quencher, side channel, partial curve]",
CCOC(=O)N1CCC(N2C(=O)c3ccc(C(=O)NCc4ccco4)cc3C2=O)CC1,"inconclusive: 11.2 µM [quencher, side channel, partial curve]",
CC1CCN(CCCNc2cc(NCCO)c([N+](=O)[O-])c3nonc23)CC1,"inconclusive: 2.82 µM [quencher, side channel, full curve, poor fit]",
COc1ccc(-n2nnnc2-c2nc3ccccc3s2)cc1,"inconclusive: 25.1 µM [fluorescent, side channel, single point]",
N#CCn1cnc2sc(-c3ccccc3)cc2c1=O,"inconclusive: 17.8 µM [quencher, side channel, partial curve]",
COC(=O)c1cc2ccccc2c(=O)s1,"inconclusive: 3.55 µM [quencher, side channel, full curve]",
